Laboratory results published in publication PMC7819943, “Rice protein-binding microarrays: a tool to detect cis-acting elements near promoter regions in rice”.
This is one part of the list.

Biological target: T1, OsWOX13 (Oryza sativa, UniProt Q5QMM3 1-267)
T1 sequence: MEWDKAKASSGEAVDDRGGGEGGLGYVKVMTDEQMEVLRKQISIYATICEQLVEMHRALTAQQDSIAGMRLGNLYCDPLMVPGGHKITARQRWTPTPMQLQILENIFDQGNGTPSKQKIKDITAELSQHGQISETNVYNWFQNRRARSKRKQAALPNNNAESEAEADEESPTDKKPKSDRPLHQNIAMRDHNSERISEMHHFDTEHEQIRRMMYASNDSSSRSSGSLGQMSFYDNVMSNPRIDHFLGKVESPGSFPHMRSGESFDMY
Test: protein-binding microarray (RPBM); PBS, 2% BSA, 51.3 ng/ul salmon testes DNA, 50 uM zinc acetate, 200 nM TF, 25 C, 1 h; high values mean tight binding
Settings: protein: recombinant; tags: N-terminal polyhistidine and DsRed monomer fusion (pET32a); label: CyDye5-dUTP incorporated in the synthesized complementary strand; 3' TTTTT single-stranded linker to array surface; dsDNA, one strand shown
Procedure, shortened: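 In PBS with 2% BSA, salmon testes DNA and 50 µM zinc acetate, 200 nM protein was incubated on a custom Agilent array at 25 °C for 1 h and then washed off. The array had been made double-stranded by primer extension with Cy5-dUTP and blocked with 2% BSA. The proteins were transcription factors fused N-terminally to polyhistidine and DsRed, expressed in E. coli BL21-CodonPlus and purified on Ni–NTA. The binding signal is per-feature fluorescence intensity (arbitrary units) from an Axon 4000B scanner.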

Sequence | binding signal
CCAAATTTCGACTGATCGAAACCCTAGCCCTAGGCCACCGCGGAGTCACCTAGTGCAG | 5680 fluorescence intensity (a.u.)
GCCATCAACATTGAACTGTTGATTGCCCCTCTGCCAAGAACGGAGTCACCTAGTGCAG | 8520 fluorescence intensity (a.u.)
AGGGAGTAATTACCAAGTGAGTTTATTGTGAAGTTTTCAACGGAGTCACCTAGTGCAG | 6260 fluorescence intensity (a.u.)
ATGATATAAATTGTAGGAGTTACATTGCAATTATGCTAGTCGGAGTCACCTAGTGCAG | 9860 fluorescence intensity (a.u.)
TTGATAAACACAGTGACTGACTACGAATATTAAACTCTGTCGGAGTCACCTAGTGCAG | 7060 fluorescence intensity (a.u.)
GGCCTGACAGGCCCTGACAGCATTTGAACCGGGACTAAAGCGGAGTCACCTAGTGCAG | 14900 fluorescence intensity (a.u.)
GGTTAATTATATGTGTGCGCGCCATGTTTGTCATTGTTAACGGAGTCACCTAGTGCAG | 28800 fluorescence intensity (a.u.)
GGCACTATCAACACGATTTGATTAAGTTGAACAACCTTCCCGGAGTCACCTAGTGCAG | 6450 fluorescence intensity (a.u.)
GTAGCTCTTAATTGTTGGGTCAGAGAAGAAGTCATCTTCACGGAGTCACCTAGTGCAG | 3580 fluorescence intensity (a.u.)
TCACAAATTTACAAAATTTTATCCTCAAATTTATGTTGAACGGAGTCACCTAGTGCAG | 13400 fluorescence intensity (a.u.)
GATACTAATTATAAATATTAAGTGTAGACTATTAATAAAACGGAGTCACCTAGTGCAG | 6430 fluorescence intensity (a.u.)
TCGTAAATTAATTATTAATAATATACTAATGGTATCCCCACGGAGTCACCTAGTGCAG | 53900 fluorescence intensity (a.u.)
ACTGTAAATTGCGAGACGAATCTTTTGAGCCTAATTATGCCGGAGTCACCTAGTGCAG | 16400 fluorescence intensity (a.u.)
ATATAATTACAATACAATCGTAGTGTAATTACACTGTAACCGGAGTCACCTAGTGCAG | 14800 fluorescence intensity (a.u.)
TCGACTTTGATTTGTACGATTGATTCCTTGAGTATATGTTCGGAGTCACCTAGTGCAG | 23900 fluorescence intensity (a.u.)
TTTTGATGGGGAGACATGGATAATTGGTGACTGCTCGATGCGGAGTCACCTAGTGCAG | 26000 fluorescence intensity (a.u.)
ATTAAATATAAATTAAAAGAAAATCTAATTGCACAGTTAGCGGAGTCACCTAGTGCAG | 18200 fluorescence intensity (a.u.)
ATGAATCTAGTCAGATTGGCCAATTTGATTTGTTTTACTCCGGAGTCACCTAGTGCAG | 9360 fluorescence intensity (a.u.)
TCCAAATTAGCGTCCAAACATCCGATGTGACATGGGCTAACGGAGTCACCTAGTGCAG | 12900 fluorescence intensity (a.u.)
AGTAATTTAGAAGTAGAACCCTATTCCATTCCATCGTGGGCGGAGTCACCTAGTGCAG | 5750 fluorescence intensity (a.u.)
TTATATACAGACTGATTAATTTCTTTCAGTTGTAACTTGGCGGAGTCACCTAGTGCAG | 23400 fluorescence intensity (a.u.)

Sequence | binding signal
TTGATTGTGTGCAACTGACTTTGTCCCCGTTCTATAATATCGGAGTCACCTAGTGCAG | 8250 fluorescence intensity (a.u.)
GATAATCACTGTATCTACTTGATTGTACAAATAAATTAAACGGAGTCACCTAGTGCAG | 4760 fluorescence intensity (a.u.)
GATATTAGATTAGTAAATAGTCAATACTAAACCAGAATGACGGAGTCACCTAGTGCAG | 6070 fluorescence intensity (a.u.)
TATGAGTTAGATTGGACCTATATTTAAGGAAGTTAAAGTGCGGAGTCACCTAGTGCAG | 7450 fluorescence intensity (a.u.)
TATTAATTTTGTTATTGCAATACATTATTTTAGAAAGGAACGGAGTCACCTAGTGCAG | 14000 fluorescence intensity (a.u.)
AGTTTTCAATCTTATCTTGAAAATTTTCAAATCTAAGTTGCGGAGTCACCTAGTGCAG | 6620 fluorescence intensity (a.u.)
ATAAGTCATAACTGAGTGATTTGCCGATCCATGATTTATTCGGAGTCACCTAGTGCAG | 10600 fluorescence intensity (a.u.)
AATTTGACAGGTAACTGAGTTTTGAGCAATACCTTAGAAGCGGAGTCACCTAGTGCAG | 29600 fluorescence intensity (a.u.)
TGTCACATGATTAATGATTTAATTTTGTCAAAAGAAATACCGGAGTCACCTAGTGCAG | 17100 fluorescence intensity (a.u.)
GTTCGCGGTAATTGAGAGAGTAAAGGCCATTTGACGCAGCCGGAGTCACCTAGTGCAG | 29900 fluorescence intensity (a.u.)
AATAATTAGCTGTAATTCTGTGAGCAAAGGTCAGGATTATCGGAGTCACCTAGTGCAG | 34600 fluorescence intensity (a.u.)
TCCTAATGACTCCACATTTTCCTGTCAATTTCCACACTAACGGAGTCACCTAGTGCAG | 6540 fluorescence intensity (a.u.)
AAAATGACATATTGATACTTACGGCCTCATAATTTGCAAACGGAGTCACCTAGTGCAG | 6230 fluorescence intensity (a.u.)
ACACACCCTATGATTAATTGAGGAGTTGATAGTTGAAGTTCGGAGTCACCTAGTGCAG | 17800 fluorescence intensity (a.u.)
TTTAACTGCCTCCATAATTACTTGCAGAGAAATAAAACTTCGGAGTCACCTAGTGCAG | 10500 fluorescence intensity (a.u.)
ATGATACTGATAATTGCCTATTACTCCTGGACCAGCATTGCGGAGTCACCTAGTGCAG | 20100 fluorescence intensity (a.u.)
CCTGTAACAAATTTTGCGGACTATATATATAGAGGGATGTCGGAGTCACCTAGTGCAG | 4490 fluorescence intensity (a.u.)
CCGACATAGATTGGCCGTTAAGGCTGGGCCCATCTAGAAACGGAGTCACCTAGTGCAG | 15900 fluorescence intensity (a.u.)
CTTTAATGAGAATTCGAAATTCGGATGAATTCCTTCATGCCGGAGTCACCTAGTGCAG | 4450 fluorescence intensity (a.u.)
TGGCTGACTGCTTGTCAACGTGGATCATCATCATACAGATCGGAGTCACCTAGTGCAG | 6990 fluorescence intensity (a.u.)
CAAAATTTGAAGTTTGATTGAAATTGGTACGATGTGATGGCGGAGTCACCTAGTGCAG | 62400 fluorescence intensity (a.u.)
